From PubChem BioAssay AID485294 (National Center for Advancing Translational Sciences (NCATS), 2010)
Among all 370,000 compounds or so, about 150 (0.041%) were called active. The inconclusive results got no clear call from the source; some entries with a clear call stand among them for comparison. Calls come from the whole dose curve; as a rule, active = well fitted inhibition curve with a large enough effect; inconclusive = small, poorly fitted or top-dose-only effect; inactive = flat fitted curve, though single readings scatter. No potency is given beside an inconclusive call; the fits are too rough.

Biological target: Beta-lactamase (Escherichia coli (strain K12)) (UniProt P00811)
Experiment: qHTS Inhibitors of AmpC Beta-Lactamase (assay with detergent); note: nearly all actives have a fitted effect of over 25% in size
Conditions: AmpC hydrolysis of nitrocefin, absorbance 480 nm, 0.01% Triton; series mostly up to 114 µM
Outline: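 20 mM phosphate pH 7.0 + 0.01% (detergent screen) or 0.0001% Triton X-100; 5.3 nM AmpC reagent; cpd preinc 15 min RT; nitrocefin (800 uM stock) to start; A480 q20 s × 4 min; Activity was normalised to no-enzyme and no-compound control wells.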
Potency is the fitted concentration of half-maximal effect; tags give direction and shape of the fitted curve.

Sequence of UniProt P00811 (P00811 whole entry, looked up): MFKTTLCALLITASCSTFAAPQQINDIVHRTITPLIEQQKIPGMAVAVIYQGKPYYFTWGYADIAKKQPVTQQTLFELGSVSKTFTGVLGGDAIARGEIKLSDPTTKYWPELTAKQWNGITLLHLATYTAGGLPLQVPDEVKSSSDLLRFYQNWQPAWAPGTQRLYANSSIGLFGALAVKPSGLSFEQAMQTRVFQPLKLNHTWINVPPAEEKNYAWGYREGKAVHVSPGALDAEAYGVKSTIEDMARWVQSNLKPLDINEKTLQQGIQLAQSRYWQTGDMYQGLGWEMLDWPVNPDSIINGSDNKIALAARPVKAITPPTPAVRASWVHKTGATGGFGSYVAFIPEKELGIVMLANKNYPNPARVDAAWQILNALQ

SMILES	Potency
CCOC(=O)N=S(=O)(Oc1ccc([N+](=O)[O-])cc1)c1ccccc1 (centres undefined)	inconclusive [inhibitor, single point]
Cc1occc1C(=O)n1nnc2ccccc21	inconclusive [inhibitor, partial curve]
COC(=O)Cn1c(=NC(=O)c2ccc(Cl)s2)sc2cc(C)ccc21	inconclusive [inhibitor, full curve]
CC(CNC(=O)CCS(=O)(=O)c1cc2c(cc1Cl)NC(=O)CO2)c1ccccc1 (centres undefined)	inactive
CC1(C)CC(=O)C(/C=N/n2cnc3ccccc3c2=O)=C(O)C1	inconclusive [inhibitor, partial curve, poor fit]
CCCCOc1ccc(Cn2c(=O)sc3ccccc32)cc1	inactive
C/C(=N\Nc1ccc(Cl)c(C(=O)O)c1)c1cccc2ccccc12	inconclusive [inhibitor, full curve]
COCCCn1c(=N)c(C(=O)NCC2CCCO2)cc2c(=O)n3ccccc3nc21 (centres undefined)	inconclusive [inhibitor, full curve]
Cc1ccc(CNC(=O)CCc2c(C)[nH]c(=O)c(C#N)c2C)cc1	inconclusive [inhibitor, full curve, poor fit]
O=C1c2ccccc2-c2onc3c(NCCO)cc(NC4CCCCC4)c1c23	inactive
O=C(c1cccs1)N(Cc1cc2ccccc2[nH]c1=O)c1ccccc1	inconclusive [inhibitor, full curve]
O=C(CSc1c2c(nc3cc(Cl)ccc13)CCCC2)NCc1ccccc1Cl	inactive
COC(=O)c1ccc(OC(=O)N2CCOCC2)cc1	inconclusive [inhibitor, full curve, poor fit]
CCOc1ccc(/C=C/C(=O)N(CC)CC(=O)Nc2ccc3c(c2)OCCO3)cc1OC	inconclusive [inhibitor, full curve]
Cc1ccccc1-n1ccnc1SCC(=O)NC1CCCC1	inconclusive [inhibitor, full curve, poor fit]
COC(=O)c1c(NC(=O)COC(=O)[C@@H](NS(=O)(=O)c2ccc(C)cc2)C(C)C)sc2c1CCC2	inconclusive [inhibitor, full curve, poor fit]
COc1ccc(NC(=O)C(NC(=O)/C=C\c2ccc3c(c2)OCO3)c2ccccc2)cc1 (centres undefined)	inactive
CC(C)(C)C(=O)Nc1nnc(-c2ccncc2)o1	inconclusive [inhibitor, full curve, poor fit]
Cc1cc(C)cc(C(=O)NC(CC(N)=O)c2ccc(N3CCN(C)CC3)c([N+](=O)[O-])c2)c1 (centres undefined)	inconclusive [inhibitor, full curve, poor fit]
COc1ccc(C/C(=N\O)c2ccc(OC)cc2)cc1	inconclusive [inhibitor, single point]
COc1ccccc1OCC(=O)Nc1ccccc1C(=O)N1CCCC1	inconclusive [inhibitor, single point]
CCN(CC)CC(=O)c1c[nH]c2ccc(C)cc12	inconclusive [inhibitor, single point]

SMILES	Potency
O=c1c2c3c(sc2ncn1/N=C/c1ccccc1)CCCC3	inconclusive [inhibitor, single point]
CC(C)(C)N(Cc1ccccc1)C(=O)COC(=O)c1ccc([N+](=O)[O-])o1	inconclusive [inhibitor, full curve, poor fit]
O=C1CC(SCc2nc3ccccc3[nH]2)C(=O)N1c1cccc(Cl)c1 (centres undefined)	inconclusive [inhibitor, full curve, poor fit]
COc1ccccc1S(=O)Cc1ccc(C(=O)NCc2ccccc2Cl)o1 (centres undefined)	inactive
O=C(/C=C/c1ccccc1)C1=C(O)C(=O)N(CCO)C1c1ccccc1[N+](=O)[O-] (centres undefined)	inconclusive [inhibitor, single point]
COc1ccc(/C=N/n2cnn(Cc3ccccc3Cl)c2=S)cc1OC	inconclusive [inhibitor, full curve, poor fit]
COc1ccc(Br)cc1CNc1ccccc1	inactive
C/C(=N\NC(=O)CSCc1ccc([N+](=O)[O-])cc1)c1ccccc1O	inconclusive [inhibitor, partial curve]
CCC(CC)N1CCN(S(=O)(=O)c2ccc(OC)cc2)CC1	inconclusive [inhibitor, partial curve, poor fit]
CCOC(=O)c1ccc(OC(=O)c2cn(-c3cccc(OC)c3)c(=O)c3ccccc23)cc1	inactive
Cc1ccc(CC(=O)NC2CCCc3ccccc32)cc1C (centres undefined)	inconclusive [inhibitor, partial curve, poor fit]
Cc1ccc(/C=C2\Sc3ccccc3C2=O)s1	inactive
Cc1cccc(Cc2c(C)nc3nc(SCC(=O)NCc4ccco4)nn3c2C)c1	inactive
CCOC(=O)c1cc(C)sc1/N=C/C1C(=O)NC(=S)NC1=O	inactive
FC(F)(F)c1cc(-c2ccccc2)nc(NCc2cccnc2)n1	inactive
CN(C)S(=O)(=O)c1ccc2nc(NC(=O)c3cccs3)sc2c1	inactive
O=C(Cn1cc(C(=O)c2ccccc2)c2ccccc21)Nc1ccc(Br)cc1	inconclusive [inhibitor, single point]
O=C(N/N=C/c1ccco1)C(O)C(O)C(=O)N/N=C/c1ccco1 (centres undefined)	inactive
CN(CCCC1CCCC1)C(=O)CC1C(=O)NCCN1Cc1ccc(F)cc1 (centres undefined)	inconclusive [inhibitor, full curve, poor fit]
COC(=O)c1ccc(CC(=O)c2c(C)cc(O)cc2O)o1	inconclusive [inhibitor, full curve, poor fit]
COc1ccc(-c2cc(C(=O)NCCCn3ccnc3)c3ccccc3n2)c(OC)c1	inconclusive [inhibitor, full curve, poor fit]
Cc1ccc(C(=O)C2=C(O)C(=O)N(Cc3cccnc3)C2c2cccc([N+](=O)[O-])c2)o1 (centres undefined)	inconclusive [inhibitor, partial curve, poor fit]
